Data from US20130109613A1, “FIXING OF PERFUME ON WET SKIN” (Beiersdorf AG, priority 2011, published 2013).
Read-outs that look alike come from different tables or passages of the source.

Assays:
[1] = cited from earlier work
solubility in water = details: at 25° C., converted from mg/L

For `CC/C=C\CCO` [cis-3-hexenol], the solubility in water ([1]; at 25° C.) is given as “about 16000 mg/L”.
In the case of `C=CC(C)CCCC(C)(C)O` (stereo not drawn) [dihydro-myrcenol], the solubility in water (solubility in water) is reported as “about 0.0016 mol/L”.
In the case of `OCCOc1ccccc1` [phenoxyethanol], the solubility in water ([1]; at 20° C.) is given as “about 2.4 % by weight”.
